# Measured values reported in the supplement of paper PMC8728848.
# Some of the results follow.
# How the values were obtained:
# Assay in all cases: glycan array binding signal (z-score within array); higher = stronger binding
# Conditions in all cases: glycan notation: IUPAC condensed, linker removed
# [1] = molecular target: Gal(b1-4)GlcNAc(b1-3)Gal(b1-4)GlcNAc(b1-3)Gal(b1-4)GlcNAc(b1-3)Gal(b1-4)GlcNAc(b1-3)Gal(b1-4)GlcNAc(b1-2)[Gal(b1-4)GlcNAc(b1-3)Gal(b1-4)GlcNAc(b1-3)Gal(b1-4)GlcNAc(b1-3)Gal(b1-4)GlcNAc(b1-3)Gal(b1-4)GlcNAc(b1-6)]Man(a1-6)[Gal(b1-4)GlcNAc(b1-3)Gal(b1-4)GlcNAc(b1-3)Gal(b1-4)GlcNAc(b1-3)Gal(b1-4)GlcNAc(b1-3)Gal(b1-4)GlcNAc(b1-2)Man(a1-3)]Man(b1-4)GlcNAc(b1-4)[Fuc(a1-6)]GlcNAc
# Outline: (§1)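 The binding signal is a Z-score computed within each array. Data were drawn from 3228 arrays in the Consortium for Functional Glycomics database, restricted to those with a known protein sequence. Scores were averaged over arrays of the same protein sequence at different concentrations or buffers, and over linkers, and negative values can be taken as non-binding.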
# [2] = molecular target: Gal(b1-4)GlcNAc(b1-3)Gal(b1-4)GlcNAc(b1-3)Gal(b1-4)GlcNAc(b1-3)Gal(b1-4)GlcNAc(b1-3)Gal(b1-4)GlcNAc(b1-3)Gal(b1-4)GlcNAc(b1-2)Man(a1-3)[Gal(b1-4)GlcNAc(b1-3)Gal(b1-4)GlcNAc(b1-3)Gal(b1-4)GlcNAc(b1-3)Gal(b1-4)GlcNAc(b1-3)Gal(b1-4)GlcNAc(b1-3)Gal(b1-4)GlcNAc(b1-2)Man(a1-6)]Man(b1-4)GlcNAc(b1-4)GlcNAc
# Outline: as §1
# [3] = molecular target: Gal(b1-4)GlcNAc(b1-3)Gal(b1-4)GlcNAc(b1-3)GalNAc
# Outline: as §1
# [4] = molecular target: Gal(b1-4)GlcNAc(b1-3)Gal(b1-4)GlcNAc(b1-3)[Gal(b1-4)GlcNAc(b1-3)Gal(b1-4)GlcNAc(b1-6)]GalNAc
# Outline: as §1
# [5] = molecular target: Gal(b1-4)GlcNAc(b1-3)Gal(b1-4)GlcNAc(b1-6)[Gal(b1-3)]GalNAc
# Outline: as §1
# [6] = molecular target: Gal(b1-4)GlcNAc(b1-3)Gal(b1-4)[Fuc(a1-3)GlcNAc(b1-6)]Gal(b1-4)Glc
# Outline: as §1
# [7] = molecular target: Gal(b1-4)GlcNAc(b1-3)Gal(b1-4)[Fuc(a1-3)]GlcNAc(b1-3)Gal(b1-4)[Fuc(a1-3)]GlcNAc
# Outline: as §1
# [8] = molecular target: Gal(b1-4)GlcNAc(b1-3)GalNAc
# Outline: as §1
# [9] = molecular target: Gal(b1-4)GlcNAc(b1-3)[Fuc(a1-3)GlcNAc(b1-6)]Gal(b1-4)Glc
# Outline: as §1
# [10] = molecular target: Gal(b1-4)GlcNAc(b1-3)[Gal(b1-4)GlcNAc(b1-6)]Gal(b1-4)GlcNAc
# Outline: as §1
# [11] = molecular target: Gal(b1-4)GlcNAc(b1-3)[Gal(b1-4)GlcNAc(b1-6)]GalNAc
# Outline: as §1
# [12] = molecular target: Gal(b1-4)GlcNAc(b1-3)[GlcNAc(b1-6)]Gal(b1-4)GlcNAc
# Outline: as §1
# [13] = molecular target: Gal(b1-4)GlcNAc(b1-6)Gal(b1-4)GlcNAc
# Outline: as §1
# [14] = molecular target: Gal(b1-4)GlcNAc(b1-6)GalNAc
# Outline: as §1
# [15] = molecular target: Gal(b1-4)GlcNAc(b1-6)[Gal(b1-3)]GalNAc
# Outline: as §1
# [16] = molecular target: Gal(b1-4)GlcNAc(b1-6)[Gal(b1-3)]GlcNAc
# Outline: as §1
# [17] = molecular target: Gal(b1-4)GlcNAc(b1-6)[Gal(b1-4)GlcNAc(b1-3)]GalNAc
# Outline: as §1
# [18] = molecular target: Gal(b1-4)GlcNAc6P
# Outline: as §1
# [19] = molecular target: Gal(b1-6)Gal
# Outline: as §1
# [20] = molecular target: Gal3S(b1-3)GalNAc
# Outline: as §1
# [21] = molecular target: Gal3S(b1-3)GlcNAc
# Outline: as §1
# [22] = molecular target: Gal3S(b1-3)[Fuc(a1-4)]GlcNAc
# Outline: as §1
# [23] = molecular target: Gal3S(b1-4)Glc
# Outline: as §1
# [24] = molecular target: Gal3S(b1-4)Glc6S
# Outline: as §1
# [25] = molecular target: Gal3S(b1-4)GlcNAc
# Outline: as §1
# [26] = molecular target: Gal3S(b1-4)GlcNAc6S
# Outline: as §1
# [27] = molecular target: Gal3S(b1-4)[Fuc(a1-3)]Glc
# Outline: as §1
# [28] = molecular target: Gal3S(b1-4)[Fuc(a1-3)]Glc6S
# Outline: as §1
# [29] = molecular target: Gal3S(b1-4)[Fuc(a1-3)]GlcNAc
# Outline: as §1
# [30] = molecular target: Gal3S(b1-4)[Fuc(a1-3)]GlcNAc6S
# Outline: as §1
# [31] = molecular target: Gal3S4S(b1-4)GlcNAc
# Outline: as §1
# [32] = molecular target: Gal3S6S(b1-4)GlcNAc
# Outline: as §1
# [33] = molecular target: Gal3S6S(b1-4)GlcNAc6S
# Outline: as §1
# [34] = molecular target: Gal4S(b1-4)GlcNAc
# Outline: as §1
# [35] = molecular target: Gal4S6S(b1-4)GlcNAc
# Outline: as §1
# [36] = molecular target: Gal6P(b1-4)GlcNAc
# Outline: as §1
# [37] = molecular target: Gal6S(b1-3)GlcNAc
# Outline: as §1
# [38] = molecular target: Gal6S(b1-3)GlcNAc6S
# Outline: as §1
# [39] = molecular target: Gal6S(b1-4)Glc
# Outline: as §1
# [40] = molecular target: Gal6S(b1-4)Glc6S
# Outline: as §1
# [41] = molecular target: Gal6S(b1-4)GlcNAc
# Outline: as §1
# [42] = molecular target: Gal6S(b1-4)GlcNAc6S
# Outline: as §1
# [43] = molecular target: GalNAc(a1-3)Gal
# Outline: as §1
# [44] = molecular target: GalNAc(a1-3)GalNAc
# Outline: as §1
# [45] = molecular target: GalNAc(a1-3)GalNAc(b1-3)Gal(a1-4)Gal(b1-4)Glc
# Outline: as §1
binder,measurement,setting,value
Gal 7 (Homo sapiens) (protein) MSNVPHKSSLPEGIRPGTVLRIRGLVPPNASRFHVNLLCGEEGGSDAALHFNPRLDTSEVVFNSKEGGSWGREERGPGVPFGRGQPFEVLIIASDDGFKAVVGDAQYHHFRHRLPLARVRLVEVGGDVQLDSVRIF,glycan array binding signal (z-score),[1],5.14
same,glycan array binding signal (z-score),[2],3.77
same,glycan array binding signal (z-score),[3],-0.127
same,glycan array binding signal (z-score),[4],0.482
same,glycan array binding signal (z-score),[5],-0.233
same,glycan array binding signal (z-score),[6],-0.338
same,glycan array binding signal (z-score),[7],0.16
same,glycan array binding signal (z-score),[8],-0.323
same,glycan array binding signal (z-score),[9],-0.258
same,glycan array binding signal (z-score),[10],-0.337
same,glycan array binding signal (z-score),[11],0.217
same,glycan array binding signal (z-score),[12],-0.294
same,glycan array binding signal (z-score),[13],-0.304
same,glycan array binding signal (z-score),[14],-0.153
same,glycan array binding signal (z-score),[15],-0.165
same,glycan array binding signal (z-score),[16],0.225
same,glycan array binding signal (z-score),[17],-0.3
same,glycan array binding signal (z-score),[18],-0.226
same,glycan array binding signal (z-score),[19],-0.233
same,glycan array binding signal (z-score),[20],0.538
same,glycan array binding signal (z-score),[21],0.499
same,glycan array binding signal (z-score),[22],-0.087
same,glycan array binding signal (z-score),[23],0.699
same,glycan array binding signal (z-score),[24],2.04
same,glycan array binding signal (z-score),[25],0.651
same,glycan array binding signal (z-score),[26],0.579
same,glycan array binding signal (z-score),[27],0.042
same,glycan array binding signal (z-score),[28],0.268
same,glycan array binding signal (z-score),[29],-0.312
same,glycan array binding signal (z-score),[30],-0.296
same,glycan array binding signal (z-score),[31],-0.203
same,glycan array binding signal (z-score),[32],-0.175
same,glycan array binding signal (z-score),[33],-0.262
same,glycan array binding signal (z-score),[34],-0.354
same,glycan array binding signal (z-score),[35],-0.251
same,glycan array binding signal (z-score),[36],-0.165
same,glycan array binding signal (z-score),[37],-0.324
same,glycan array binding signal (z-score),[38],0.075
same,glycan array binding signal (z-score),[39],-0.263
same,glycan array binding signal (z-score),[40],-0.208
same,glycan array binding signal (z-score),[41],-0.246
same,glycan array binding signal (z-score),[42],0.11
same,glycan array binding signal (z-score),[43],-0.299
same,glycan array binding signal (z-score),[44],-0.302
same,glycan array binding signal (z-score),[45],-0.298
